This test concerns simian virus 40 (SV40) strain VR-239.

We go through 2 molecules from publication PMC7705112, “A Novel, Broad-Acting Peptide Inhibitor of Double-Stranded DNA Virus Gene Expression and Replication” (Frontiers in Microbiology, 2020).

Peptide text beside a SMILES is read from it.

As to `CC(C)C[C@H](NC(=O)[C@H](CS)NC(=O)[C@H](CCC(N)=O)NC(=O)[C@@H]1CCCN1C(=O)[C@@H]1CCCN1C(=O)[C@H](CCCNC(=N)N)NC(=O)[C@H](CCCNC(=N)N)NC(=O)[C@H](CCCNC(=N)N)NC(=O)[C@H](CCC(N)=O)NC(=O)[C@H](CCCNC(=N)N)NC(=O)[C@H](CCCNC(=N)N)NC(=O)[C@H](CCCCN)NC(=O)[C@H](CCCCN)NC(=O)[C@H](CCCNC(=N)N)NC(=O)CN)C(=O)N[C@@H](C)C(=O)N[C@@H](Cc1ccccc1)C(=O)N[C@@H](Cc1ccc(O)cc1)C(=O)N[C@@H](C)C(=O)N[C@@H](CS)C(=O)N[C@@H](Cc1ccccc1)C(=O)N[C@@H](CS)C(=O)O` [TAT-I24] (H-GRKKRRQRRRPPQCLAFYACFC-OH), the “inhibition of large T antigen transcript levels” value (at the highest concentration tested (20 μM), vs untreated cells) is on record as “approximately 98%”. With GRKKRRQRRRPPQ [TAT], the “effect on large T antigen mRNA levels” value (Figure 9A, TAT (48–60)) is reported as “no inhibitory effect”.
